Experimental data reported in ChEMBL document CHEMBL4888484, “Replenishing the malaria drug discovery pipeline: Screening and hit evaluation of the MMV Hit Generation Library 1 (HGL1) against asexual blood stage Plasmodium falciparum ,using a nano luciferase reporter read-out” (2022).
Hit rate of the full screen: of about 150,000 compounds, about 540 (0.36%) showed an effect of 50% or more. The list shows a part of the results.

What follows are compounds tested on Plasmodium falciparum (assay: Primary screen in NF54 nanoGlo assay, in single point, at 2uM, 72h; a lower Z score goes with more inhibition). Details: timepoint 72 hour.
Assay type: functional, Erythrocyte

SMILES	% Inhibition [%]	Z score
CNc1cc(C(=O)NC[C@@H]2COc3ccccc3C2)ccn1	-5	1.04
CC(C)N(CCO)C(=O)C[C@]1(c2cccc(F)c2)CC(=O)N(Cc2cccnc2)C1=O	1	-0.1
Nc1nc(C2(NC(=O)C(F)(F)F)CCCCC2)cs1	-2	0.22
CN1CC[C@@]2(CCC1=O)CN(CCCOCc1ccccc1)CCN2C	1	-0.16
O=C(Nc1cc(C(F)(F)F)n[nH]1)[C@@H]1CCCc2ccccc21	-3	0.47
COc1ccc(C)cc1C1(CNC(=O)c2ccc(C(=O)O)nc2)CCOCC1	-2	0.19
Cc1ccc(-n2ncc3c(=O)n(CC(=O)N4CCC(Cc5ccccc5)CC4)cnc32)c(C)c1	-1	0.1
CC[C@H]1CCCCN1C(=O)COc1ccc2c(c1)OCO2	-11	2.11
O=C(Cc1ccccc1OC(F)F)NC[C@H]1CS(=O)(=O)c2ccccc2O1	3	-0.54
Cn1cccc1CN[C@H]1[C@H](O)[C@@H](N2CCC(Cc3ccccc3)CC2)[C@@H]2OC[C@H]1O2	10	-1.25
CC(=O)c1c(C)nc2c(C#N)c(C)n(-c3ccc(Br)cc3)c2c1-c1ccccc1	-4	0.77
O=C1NC2(C(=O)N3CCC(Cc4ccccc4)CC3)CC3CC1C2C3 (centres undefined)	1	-0.18
CCC1(CC)CCN(C(=O)[C@@H]2NCc3ncncc32)C1	-16	3.19
CC(C)(C)OC(=O)c1cc(C(=O)N[C@@H](CCc2ccccc2)C(F)F)n[nH]1	6	-1.16
CC(F)(F)c1cccc(NC(=O)NCC(F)(F)F)c1	-15	1.51
Cc1[nH]c2ccc(CNC(=O)CCn3ccc(=O)[nH]c3=O)cc2c1C	3	-0.33
CC(C)(C)c1nn2c(Cc3ccccc3)nnc2[nH]c1=O.CC(C)(C)c1nnc(NNC(=O)Cc2ccccc2)[nH]c1=O	-30	3.48
C[C@@]1(C(=O)Nc2c[nH]c(C(N)=O)c2)CCOc2ccccc21	4	-0.76
CC1(CNS(=O)(=O)c2cccc(C(=O)N3C[C@H]4CCC[C@@H]3C4)c2)COC1	-4	0.6
O=C(c1cnn(-c2ccccc2)n1)N1CCn2nccc2C1	0	0.01
CCN(CC)c1ccc2nnc(CCC(=O)NC3CCCCC3)n2n1	-4	0.65
COc1ccc(C(=O)N2CCOc3ccc(N(C)C)cc3C2)cc1	5	-0.81
CC1c2ccccc2OC1C(=O)Nc1scnc1-c1ccccc1 (centres undefined)	-8	0.8
CO[C@@H](CNC(=O)c1nc2n(n1)-c1ccccc1S(=O)(=O)N2)c1ccccc1	34	-4.36
CC(C)(C)CCCC(=O)N1CC[C@@]2(C1)NC(=O)NC2=O	-5	1.07
CC(C)Cc1cc(C(=O)N2CC[C@@]3(CCCN(CC4CC4)C3=O)C2)on1	-3	0.52

SMILES	% Inhibition [%]	Z score
CC(C)N1CC(=O)N(Cc2nn(C)c3ccccc23)C1=O	-1	0.12
Cc1ccc(OCc2cccc(C(=O)N[C@](C)(C(=O)O)C3CC3)c2)cn1	-5	0.91
C=CCNC(=O)C1CCC(c2ccccc2)N(Cc2ccc(F)cc2)C1 (centres undefined)	15	-1.46
Cc1noc(C)c1CS(=O)(=O)[C@@H](C)C(=O)N(C)C1CCCCC1	-2	0.29
Cn1cnnc1-c1nn(C)c2c1CN(C(=O)c1ccccc1F)CC2	4	-0.56
CC(C)C(=O)N1CCC(NCCCOC2CCCCC2)CC1	-19	1.71
CC1CC(NS(=O)(=O)c2cc(F)ccc2NCC(=O)N(C)C)C1 (centres undefined)	-10	1.4
O=C(CN1CCS(=O)(=O)CC1)OCc1cccc(F)c1	8	-1.48
CC(C)c1nnc(N(C)CC(C)(C)O)s1	-5	0.72
Cc1cc(C(=O)N2CCC(CCc3noc(N(C)C)n3)CC2)n(C)n1	-2	0.32
CN(C)C(=O)c1ccc(CNC(=O)c2cccn2C2CC2)o1	-3	0.62
CCOc1cccc(CN(C(=O)OC(C)(C)C)C2CCC(C(=O)N3CCO[C@@H](COc4ccccc4)C3)CC2)c1 (some centres undefined)	-7	1
C=CCN(C(=O)Cc1cccc2ccccc12)[C@H]1CCS(=O)(=O)C1	24	-3.07
Cc1cccc(NC(=O)Cn2ccc3ccc(-c4nnc(C)o4)cc32)c1	6	-0.76
O=C1OCc2c1cccc2S(=O)(=O)NCC1(C2CC2)CCC1	9	-1.1
CN1CCC2CCN(C(=O)Nc3ccc4c(c3)OCO4)C2C1 (centres undefined)	-4	0.61
O=C(COc1ccccc1)Nc1cc2ccccc2cc1NC(=O)COc1ccccc1	-8	1.06
O=C(Cn1ncc(=O)c2ccccc21)Nc1cccc(S(=O)(=O)N2CCCC2)c1	-4	0.53
CN(C)c1ncc(CN2CCN(CCO)C(C)(C)C2)c2ccccc12	16	-3.14
Cc1cc(C)c2c(=O)n(CC(=O)Nc3ccc(F)cc3F)c(=O)n(-c3ccccc3)c2n1	-10	1.32
Cc1cccc(C(=O)Nc2ccc(N3CCNC(=O)C3)nc2)n1	-21	2.8
O=C(NCCN1CCc2c(Cl)cccc2C1)NCc1ccccn1	-7	0.68
O=C(NCc1ccc(F)cc1)Nc1snnc1C(=O)NCc1ccc(F)cc1	-30	3.54
COC(=O)c1cn(CCNC(=O)Nc2cc(C)cc(OC)c2C)nn1	-8	0.7
CC(=O)OCc1ccc(CN2CCC(=O)NC2=O)cc1	-11	1.99
O=C(c1n[nH]c2ccccc12)N1CCCn2nc(-c3cccs3)cc2C1	-1	0.21
